What all share (experiment): Primary Screen for Target Class Profiling of Small Molecule Inhibitors of Methyltransferases
The target in assay [1] is Glycine N-methyltransferase (Homo sapiens) (UniProt Q14749). To be noted: purified enzyme, MTase-Glo SAH luminescence; measured here: GNMT inhibition; at 40 µM; stronger effect = lower value. The gist of the method: (§1)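 Each enzyme was reacted with SAM and its substrate, with compounds tested once at 40 uM; SAH formed was read by MTase-Glo luminescence.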
Assay [2] has as its target Guanidinoacetate N-methyltransferase (Homo sapiens) (UniProt Q14353). To be noted: purified enzyme, MTase-Glo SAH luminescence; measured here: GAMT inhibition; at 40 µM; stronger effect = lower value. The gist of the method:
as §1

Assay [3] has as its target Histamine N-methyltransferase (Homo sapiens) (UniProt P50135). To be noted: purified enzyme, MTase-Glo SAH luminescence; measured here: HNMT inhibition; at 40 µM; stronger effect = lower value. The gist of the method:
as §1

Assay [4] addresses Nicotinamide N-methyltransferase (Homo sapiens) (UniProt P40261). To be noted: purified enzyme, MTase-Glo SAH luminescence; measured here: NNMT inhibition; at 40 µM; stronger effect = lower value. The gist of the method: as §1
The target in assay [5] is Phenylethanolamine N-methyltransferase (Homo sapiens) (UniProt P11086). To be noted: purified enzyme, MTase-Glo SAH luminescence; measured here: PNMT inhibition; at 40 µM; stronger effect = lower value. The method, boiled down:
as §1

Several values for one entry are separate records, joined by “and”; a condition that tells them apart may be missing. Equal values may be shown once. Some of the results follow. The main result of the screen is listed elsewhere. These columns were measured beside it and carry no call.
% is set by controls: 0 for no effect and ±100 for the full control effect.

With `COCCCNC(=O)c1cc2n(n1)CC(C)(C(=O)NCc1ccc(C)cc1)N(C)C2=O` (stereo unspecified), the activity change, negative = inhibition is -0.1% in assay [1]; 0% in assay [2]; 0.043% in assay [3]; -0.415% in assay [4]; 3.34% in assay [5].
On the same counts, the results for `CC(=O)OC(C)(C)/C=C/C(=O)[C@](C)(O)C1[C@H](O)C[C@@]2(C)[C@@H]3CC=C4[C@@H](C[C@H](O[C@@H]5O[C@H](CO)[C@@H](O)[C@H](O)[C@H]5O)C(=O)C4(C)C)[C@]3(C)C(=O)C[C@]12C` (stereo partly specified) are 0.991%, -0.82%, 3.26%, -11.1% and 4.86%.
For `COCCNc1nc2c(S(=O)(=O)c3ccc(C(C)C)cc3)nnn2c2ccccc12` the same measures were -4.02%, -0.804%, -2.93%, -15.7% and -5.91%.
As to `O=C(O)c1ccc2c3c1cccc3c(=O)n1c3ccccc3nc21`, the activity change, negative = inhibition is -8.28% in assay [2], -21.9% in assay [4] and -8.86% in assay [5].
As to `Cn1c2ccccc2c2c3c(c4c5ccccc5n(CCC#N)c4c21)CNC3=O`, the activity change, negative = inhibition in assay [1] is 2.33%; in assay [2], -12.5%; in assay [3] it was 9.98%; in assay [4], -43.8%; in assay [5] it was -13.7%.
In the case of `CCCn1c(=O)c2ccc(C(=O)NC3CCCCC3)cc2n2c(SCc3cccc(OC)c3)nnc12`, the activity change, negative = inhibition stood at 6.06% in assay [1]; 0% in assay [2]; 9.38% in assay [3]; 0.528% in assay [4]; 1.97% in assay [5].
For `CCc1ccc(C(=O)Nc2cc(CN3CCN(C)CC3)cc(C(F)(F)F)c2)cc1C#Cc1cnc2ccnn2c1` the same measures were 5.03%, 12.4%, -12.8%, -2.89% and 6.77%.
As for `O=C(NC1CCCCC1)c1ccc2c(=O)nc3c(-c4ccccc4F)n[nH]n3c2c1`, the activity change, negative = inhibition in assay [1] is -24%; in assay [2], 2.75%; in assay [3] it was -2.46%; in assay [4], -0.986%; in assay [5], -3.45%.
`C=C1CC23CCC4[C@@](C)(CCC[C@@]4(C)C(=O)O)C2CCC1C3` (stereo partly specified): the activity change, negative = inhibition is -4.8% in assay [1]; -10.1% in assay [2]; 3.42% in assay [3]; -21.6% in assay [4]; -12.2% in assay [5].
In the case of `Nc1ncnc2c1ncn2CCNCCCCCO`, the activity change, negative = inhibition in assay [1] was 3.8%; in assay [2] it was 9.94%; in assay [3] it was 4.44%; in assay [4], -7.01%; in assay [5], 0.982%.
On to `CCS(=O)(=O)N(Cc1cccnc1)c1cccc(-c2ccc(C#N)cc2)c1`, for which the activity change, negative = inhibition in assay [1] was 4.13%; in assay [2] it was 1.65%; in assay [3] it was 2.7%; in assay [4] it was -18.7%; in assay [5], -7.38%.
For `CCS(=O)c1nc(-c2cccc(OCc3ccccc3)c2)cc(C(F)(F)F)n1` (stereo unspecified) the same measures were -7.79%, -2.34%, 0.03%, -27.7% and -11.1%.
In the case of `CSc1ccc(CN2C(=O)c3ccc(-c4ccco4)n3CC2(C)C(=O)NC2CCCCC2)cc1` (stereo unspecified), the activity change, negative = inhibition was -2.97% in assay [1]; 0.455% in assay [2]; -0.167% in assay [3]; -0.112% in assay [4]; 1.45% in assay [5].
For the compound `COc1ccc(-c2cn(C)c(=O)n3cc(CN4CCNC(=O)C4)nc23)cn1`, the activity change, negative = inhibition in assay [1] is -7.43%; in assay [2] it was -10.4%; in assay [3], -4.38%; in assay [4] it was -15%; in assay [5] it was -9.12%.
Regarding `COCCC1(NC(=O)c2ccccc2)CCN(Cc2ccc(F)cc2F)CC1`, the activity change, negative = inhibition is -1.21% in assay [1]; -0.337% in assay [2]; 1.5% in assay [3]; -1.12% in assay [4]; 3.52% in assay [5].
Take `CCCN1C(=O)c2cc(C(=O)NCc3ccccc3OC)nn2CC1(C)C(=O)NC1CCCC1` (stereo unspecified): the activity change, negative = inhibition in assay [1] was -2.05%; in assay [2], 2.42%; in assay [3] it was -4.03%; in assay [4], -2.62%; in assay [5], -1.46%.
On the same counts, the results for `Cc1cc(C)n(CCC(=O)N2CCC(Cc3noc(C4CC4)n3)C2)n1` (stereo unspecified) are -1.61%, -6.15%, -1.08%, -7.31% and -2.12%.
Regarding `COC(=O)c1ncn2c1C(=O)N(Cc1ccc(SC)cc1)C(C)(C(=O)NCc1ccccc1)C2` (stereo unspecified), the activity change, negative = inhibition in assay [1] was -0.276%; in assay [2], 3.19%; in assay [3] it was 1.56%; in assay [4], 1.95%; in assay [5] it was -0.455%.
In the case of `Cc1cccc(CN2CC(=O)N(Cc3ccc(Cl)cc3)c3ccccc3S2(=O)=O)c1`, the activity change, negative = inhibition in assay [1] is 2.56%; in assay [2] it was 3.91%; in assay [3] it was -2.97%; in assay [4] it was -2.85%; in assay [5], -5.14%.
For `CCOc1ccc(CN2C(=O)c3cc4ccccc4n3CC2(C)C(=O)NCCCOC(C)C)cc1` (stereo unspecified) the same measures were 2.1%, 8.55%, 2.97%, -1.6% and 0.369%.
On the same counts, the results for `O=C(NCCc1ccccc1)c1ccc(CN2C(=O)CCn3nc(-c4cccc(Cl)c4)cc32)cc1` are 4.66%, 0%, 11.1%, -0.085% and 2.78%.
For `O=C(O)C[C@@H](NC(=O)c1cc(-c2ccc(-c3ccncc3)cc2)cs1)c1ccccc1` the same measures were -41.1%, -9.54%, -15.7%, -29.3% and -15.4%.
On to `COc1ccc(C(=O)N2CCCCCNC(=O)[C@@H]3CCC[C@@H]32)cn1`, for which the activity change, negative = inhibition in assay [1] was -4.05%; in assay [2], -7.8%; in assay [3], -2.45%; in assay [4] it was -13.7%; in assay [5], 8.14%.
For `Cc1cc(C)c(S(=O)(=O)NCCn2c(C)cnc2C2CCC2)cc1C` the same measures were -3.58%, 0.564%, -3.82%, -8.44% and -0.713%.
For `COc1cccc([C@H]2Nc3ccc(S(=O)(=O)Nc4ccccc4F)cc3C3C=CCC32)c1OC` (stereo partly specified) the same measures were -20%, -7%, -15.5%, -15.9% and -18.1%.
As for `CCCC1c2ccc(C)n2CCN1C(=O)Nc1cccc(Cl)c1` (stereo unspecified), the activity change, negative = inhibition is 1.07% in assay [1]; 0.328% in assay [2]; -5.19% in assay [3]; 4.8% in assay [4]; -2.76% in assay [5].
Regarding `CC(=O)O[C@@]12CO[C@@H]1C[C@H](O)[C@@]1(C)C(=O)[C@H](O)C3=C(C)[C@@H](OC(=O)C(O)[C@@H](NC(=O)OC(C)(C)C)c4ccccc4)C[C@@](O)([C@@H](OC(=O)c4ccccc4)[C@H]21)C3(C)C` (stereo partly specified), the activity change, negative = inhibition in assay [2] was 2.21% and 16.4%; in assay [4], -7.91% and -0.064%; in assay [5], 4.1% and 0.096%.
For `CSc1cccc(NC(=O)N2CCn3cccc3C2Cc2ccccc2)c1` (stereo unspecified), the activity change, negative = inhibition in assay [1] was -2.08%; in assay [2], 3.54%; in assay [3], -3.04%; in assay [4] it was -6.76%; in assay [5] it was -6.51%.
On the same counts, the results for `COc1ccc(F)c(-c2nc(CN(C)CC3(CO)CC3)c(C)o2)c1` are -2.08%, -0.422%, -3.46%, -5.82% and -0.894%.
